{
  "source": "the supplement of paper PMC10185492",
  "note": "This is one part of the list. Read counts after selection give these values, which scatter widely.",
  "data": [
    {"test_system": "SARS-CoV-2 3CLpro (nsp5)", "assay": "substrate phage enrichment score (protease-eluted vs HEPES control, +1 offset) (ratio); higher = better cleaved substrate", "settings": "selection round: 4; protease elution time: 15 min", "experimental": "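Random heptapeptide substrate phage display (M13 pIII fusion, heptapeptide between an N-terminal biotinylated AviTag GLNDIFEAQKIEWHE and pIII; phages immobilised on streptavidin) eluted by cleavage with 50 nM protease in 20 mM HEPES at 37 °C. Selected phages were NGS sequenced, and the enrichment score is (reads in protease sample + 1)/(reads in HEPES blank-selection control + 1).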", "values": [
      {"substance": "KFSKFEG", "substrate phage enrichment score": 1.65},
      {"substance": "IYNSTLQ", "substrate phage enrichment score": "> 26"},
      {"substance": "LRPNCQI", "substrate phage enrichment score": 25},
      {"substance": "TTELLTE", "substrate phage enrichment score": "> 135"},
      {"substance": "KPVGVSP", "substrate phage enrichment score": 2.4},
      {"substance": "DLCETVN", "substrate phage enrichment score": "> 86"},
      {"substance": "KQQRAWL", "substrate phage enrichment score": 8.4},
      {"substance": "SQAAHHH", "substrate phage enrichment score": 1.54},
      {"substance": "WRHIFQG", "substrate phage enrichment score": "> 24"},
      {"substance": "TKFGQGD", "substrate phage enrichment score": 4},
      {"substance": "PAWTFGC", "substrate phage enrichment score": 0.765},
      {"substance": "ERYFQGG", "substrate phage enrichment score": 2.8},
      {"substance": "TSVAETG", "substrate phage enrichment score": 12},
      {"substance": "LKRPSYG", "substrate phage enrichment score": "> 21"},
      {"substance": "CRLQSDS", "substrate phage enrichment score": "> 93"},
      {"substance": "RSTRTRQ", "substrate phage enrichment score": 10.7},
      {"substance": "PLVVSPR", "substrate phage enrichment score": 1.8},
      {"substance": "ITIRNSP", "substrate phage enrichment score": 1.56},
      {"substance": "SLYFQGG", "substrate phage enrichment score": 1.45},
      {"substance": "VHNGKSG", "substrate phage enrichment score": 1.65},
      {"substance": "LTAPHLD", "substrate phage enrichment score": 0.547},
      {"substance": "KPCWNSG", "substrate phage enrichment score": 1},
      {"substance": "TYSTTTK", "substrate phage enrichment score": 0.458},
      {"substance": "ARYGPCP", "substrate phage enrichment score": 0.0488},
      {"substance": "PVAAHHH", "substrate phage enrichment score": 1.32},
      {"substance": "STLMSEC", "substrate phage enrichment score": 0.389},
      {"substance": "PAASSVR", "substrate phage enrichment score": "> 26"},
      {"substance": "RSSPSLK", "substrate phage enrichment score": "> 24"},
      {"substance": "YQTSTLQ", "substrate phage enrichment score": "> 53"},
      {"substance": "TGVYSQR", "substrate phage enrichment score": "> 33"},
      {"substance": "QARHENG", "substrate phage enrichment score": 1.2},
      {"substance": "TNHHHHH", "substrate phage enrichment score": 14},
      {"substance": "SRWPFSI", "substrate phage enrichment score": 2.13},
      {"substance": "KTSGVMT", "substrate phage enrichment score": 1.4},
      {"substance": "VPGRKPG", "substrate phage enrichment score": "> 39"},
      {"substance": "NNTEQFR", "substrate phage enrichment score": "> 21"},
      {"substance": "LNRGHYW", "substrate phage enrichment score": 3.62},
      {"substance": "SNKRTCT", "substrate phage enrichment score": 18},
      {"substance": "FPNGTQR", "substrate phage enrichment score": "> 76"},
      {"substance": "KTTQKGL", "substrate phage enrichment score": "> 27"},
      {"substance": "LLNPVDT", "substrate phage enrichment score": 4},
      {"substance": "VELPVTQ", "substrate phage enrichment score": 1.44},
      {"substance": "RSATMLQ", "substrate phage enrichment score": "> 40"},
      {"substance": "HGCKNSP", "substrate phage enrichment score": "> 21"},
      {"substance": "ALHLLPP", "substrate phage enrichment score": "> 148"},
      {"substance": "NRLDACF", "substrate phage enrichment score": 10},
      {"substance": "QATLQGR", "substrate phage enrichment score": "> 39"},
      {"substance": "SEAAPCS", "substrate phage enrichment score": "> 29"},
      {"substance": "HVFQPPV", "substrate phage enrichment score": 4.6},
      {"substance": "MCRPNRQ", "substrate phage enrichment score": 1.06},
      {"substance": "VRNQGQY", "substrate phage enrichment score": "> 33"},
      {"substance": "QQTHVTR", "substrate phage enrichment score": "> 49"},
      {"substance": "MDQVSPS", "substrate phage enrichment score": "> 80"},
      {"substance": "GVAATPT", "substrate phage enrichment score": "> 26"},
      {"substance": "ALQPKTG", "substrate phage enrichment score": 0.118},
      {"substance": "CAAAQQH", "substrate phage enrichment score": 1.61},
      {"substance": "RLHTILQ", "substrate phage enrichment score": "> 97"},
      {"substance": "DHRNNLN", "substrate phage enrichment score": 0.692},
      {"substance": "AHYREQC", "substrate phage enrichment score": 1.88},
      {"substance": "MERKPVG", "substrate phage enrichment score": "> 35"},
      {"substance": "VCTGAAK", "substrate phage enrichment score": 4.5},
      {"substance": "QSGDKEP", "substrate phage enrichment score": 1.17},
      {"substance": "SPTPKCG", "substrate phage enrichment score": 2.67},
      {"substance": "FERNSWQ", "substrate phage enrichment score": "> 31"},
      {"substance": "KGLHHVR", "substrate phage enrichment score": "> 27"},
      {"substance": "PRCPLTW", "substrate phage enrichment score": "> 73"},
      {"substance": "KHFQGGS", "substrate phage enrichment score": 0.688},
      {"substance": "DNQPSLH", "substrate phage enrichment score": 1.75},
      {"substance": "SRDEPYG", "substrate phage enrichment score": 2},
      {"substance": "CQAAHHH", "substrate phage enrichment score": 0.114},
      {"substance": "NHTSLMQ", "substrate phage enrichment score": 9.33},
      {"substance": "AKMRTGD", "substrate phage enrichment score": 3},
      {"substance": "RRQNERE", "substrate phage enrichment score": "> 28"},
      {"substance": "LIRMVSV", "substrate phage enrichment score": 2.71},
      {"substance": "SQEKDGT", "substrate phage enrichment score": "> 21"},
      {"substance": "IESITLQ", "substrate phage enrichment score": "> 42"},
      {"substance": "TERTNKL", "substrate phage enrichment score": 4.39},
      {"substance": "APQWCNR", "substrate phage enrichment score": "> 30"},
      {"substance": "SNSPPYL", "substrate phage enrichment score": 1.44},
      {"substance": "RQSFMPD", "substrate phage enrichment score": "> 31"},
      {"substance": "ESGQLYG", "substrate phage enrichment score": 1.25},
      {"substance": "PSSECAM", "substrate phage enrichment score": "> 23"},
      {"substance": "DAAAHHH", "substrate phage enrichment score": 0.523},
      {"substance": "LEHPNRA", "substrate phage enrichment score": "> 41"},
      {"substance": "PTHREGS", "substrate phage enrichment score": 34},
      {"substance": "KSGDGCI", "substrate phage enrichment score": 0.963},
      {"substance": "NRRPCKW", "substrate phage enrichment score": 1.11},
      {"substance": "HIQSWRG", "substrate phage enrichment score": "> 47"},
      {"substance": "DKWVPTD", "substrate phage enrichment score": 0.149},
      {"substance": "SWQGGFN", "substrate phage enrichment score": 11},
      {"substance": "KSGRDLQ", "substrate phage enrichment score": 3.67},
      {"substance": "HQTKGPG", "substrate phage enrichment score": "> 41"},
      {"substance": "ASAPLLQ", "substrate phage enrichment score": "> 714"},
      {"substance": "CCRPCAM", "substrate phage enrichment score": 5.2},
      {"substance": "FSLSAGH", "substrate phage enrichment score": 6.67},
      {"substance": "RTRVHDW", "substrate phage enrichment score": 2.83},
      {"substance": "ERSEDLK", "substrate phage enrichment score": 2.43},
      {"substance": "SAAAQHN", "substrate phage enrichment score": 1.85},
      {"substance": "PTQFDRP", "substrate phage enrichment score": 1.83},
      {"substance": "SRTGAYQ", "substrate phage enrichment score": 6.67},
      {"substance": "QHTNGGG", "substrate phage enrichment score": "> 28"},
      {"substance": "PHLRDHA", "substrate phage enrichment score": 1.14},
      {"substance": "RQAAHHH", "substrate phage enrichment score": 0.833},
      {"substance": "SAPSPAQ", "substrate phage enrichment score": 4.75},
      {"substance": "TYEPTRP", "substrate phage enrichment score": "> 26"},
      {"substance": "RAAAQQQ", "substrate phage enrichment score": 2.29},
      {"substance": "RNQGIWQ", "substrate phage enrichment score": 1},
      {"substance": "VNDSVTW", "substrate phage enrichment score": "> 24"},
      {"substance": "NDGPLNP", "substrate phage enrichment score": 14.3},
      {"substance": "THSQWPN", "substrate phage enrichment score": 29.7},
      {"substance": "RQVSSAE", "substrate phage enrichment score": 0.0444},
      {"substance": "DAHRMGH", "substrate phage enrichment score": 2},
      {"substance": "VSAVLQA", "substrate phage enrichment score": "> 21"},
      {"substance": "SMAAHHH", "substrate phage enrichment score": 0.471},
      {"substance": "TPNVTNG", "substrate phage enrichment score": 0.08},
      {"substance": "KHGQSSH", "substrate phage enrichment score": 1.08},
      {"substance": "IRTMEPE", "substrate phage enrichment score": "> 36"}
    ]}
  ]
}
